{"source": "the supplement of paper PMC8728848", "binders": {"B1": {"name": "CLEC-6 (Homo sapiens), Q8WXI8 (protein)", "chain": "MGLEKPQSKLEGGMHPQLIPSVIAVVFILLLSVCFIASCLVTHHNFSRCKRGTGVHKLEHHAKLKCIKEKSELKSAEGSTWNCCPIDWRAFQSNCYFPLTDNKTWAESERNCSGMGAHLMTISTEAEQNFIIQFLDRRLSYFLGLRDENAKGQWRWVDQTPFNPRRVFWHKNEPDNSQGENCVVLVYNQDKWAWNDVPCNFEASRICKIPGTTLN"}}, "experiment_in_all_cases": "glycan array binding signal (z-score within array); higher = stronger binding", "settings_in_all_cases": "glycan notation: IUPAC condensed, linker removed", "key": {"[1]": {"target": "Gal(b1-4)GlcNAc(b1-3)Gal(b1-4)Glc", "how_it_was_run": "(§1)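 From the Consortium for Functional Glycomics database, 3228 arrays were curated, keeping only those whose protein sequence was available. Binding is given as a within-array Z-score averaged across arrays sharing a protein sequence and across linkers. Negative Z-scores can be read as non-binding.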"}, "[2]": {"target": "Gal(b1-4)GlcNAc(b1-3)Gal(b1-4)GlcNAc", "how_it_was_run": "as §1"}, "[3]": {"target": "Gal(b1-4)GlcNAc(b1-3)Gal(b1-4)GlcNAc(b1-3)Gal(b1-4)GlcNAc", "how_it_was_run": "as §1"}, "[4]": {"target": "Gal(b1-4)GlcNAc(b1-3)Gal(b1-4)[Fuc(a1-3)]GlcNAc(b1-3)Gal(b1-4)[Fuc(a1-3)]GlcNAc", "how_it_was_run": "as §1"}, "[5]": {"target": "Gal(b1-4)GlcNAc(b1-3)GalNAc", "how_it_was_run": "as §1"}, "[6]": {"target": "Gal(b1-4)GlcNAc(b1-3)[Gal(b1-4)GlcNAc(b1-6)]GalNAc", "how_it_was_run": "as §1"}, "[7]": {"target": "Gal(b1-4)GlcNAc(b1-6)Gal(b1-4)GlcNAc(b1-6)GalNAc", "how_it_was_run": "as §1"}, "[8]": {"target": "Gal(b1-4)GlcNAc(b1-6)GalNAc", "how_it_was_run": "as §1"}, "[9]": {"target": "Gal(b1-4)GlcNAc(b1-6)[Gal(b1-3)]GalNAc", "how_it_was_run": "as §1"}, "Gal3S(b1-3)GalNAc": {"target": "Gal3S(b1-3)GalNAc", "how_it_was_run": "as §1"}, "Gal3S(b1-3)GlcNAc": {"target": "Gal3S(b1-3)GlcNAc", "how_it_was_run": "as §1"}, "[10]": {"target": "Gal3S(b1-3)[Fuc(a1-4)]GlcNAc", "how_it_was_run": "as §1"}, "Gal3S(b1-4)Glc": {"target": "Gal3S(b1-4)Glc", "how_it_was_run": "as §1"}, "Gal3S(b1-4)Glc6S": {"target": "Gal3S(b1-4)Glc6S", "how_it_was_run": "as §1"}, "Gal3S(b1-4)GlcNAc": {"target": "Gal3S(b1-4)GlcNAc", "how_it_was_run": "as §1"}, "Gal3S(b1-4)GlcNAc6S": {"target": "Gal3S(b1-4)GlcNAc6S", "how_it_was_run": "as §1"}, "Gal3S6S(b1-4)GlcNAc": {"target": "Gal3S6S(b1-4)GlcNAc", "how_it_was_run": "as §1"}, "Gal3S6S(b1-4)GlcNAc6S": {"target": "Gal3S6S(b1-4)GlcNAc6S", "how_it_was_run": "as §1"}, "Gal4S(b1-4)GlcNAc": {"target": "Gal4S(b1-4)GlcNAc", "how_it_was_run": "as §1"}, "Gal4S6S(b1-4)GlcNAc": {"target": "Gal4S6S(b1-4)GlcNAc", "how_it_was_run": "as §1"}, "Gal6S(b1-4)Glc": {"target": "Gal6S(b1-4)Glc", "how_it_was_run": "as §1"}, "Gal6S(b1-4)Glc6S": {"target": "Gal6S(b1-4)Glc6S", "how_it_was_run": "as §1"}, "Gal6S(b1-4)GlcNAc": {"target": "Gal6S(b1-4)GlcNAc", "how_it_was_run": "as §1"}, "GalNAc(a1-3)Gal": {"target": "GalNAc(a1-3)Gal", "how_it_was_run": "as §1"}, "GalNAc(a1-3)GalNAc": {"target": "GalNAc(a1-3)GalNAc", "how_it_was_run": "as §1"}, "[11]": {"target": "GalNAc(b1-3)Gal(a1-4)Gal(b1-4)GlcNAc", "how_it_was_run": "as §1"}, "GalNAc(b1-3)GalNAc": {"target": "GalNAc(b1-3)GalNAc", "how_it_was_run": "as §1"}, "GalNAc(b1-4)GlcNAc": {"target": "GalNAc(b1-4)GlcNAc", "how_it_was_run": "as §1"}, "Glc(a1-4)Glc": {"target": "Glc(a1-4)Glc", "how_it_was_run": "as §1"}, "Glc(a1-6)Glc(a1-6)Glc": {"target": "Glc(a1-6)Glc(a1-6)Glc", "how_it_was_run": "as §1"}, "Glc(b1-4)Glc": {"target": "Glc(b1-4)Glc", "how_it_was_run": "as §1"}, "Glc(b1-6)Glc": {"target": "Glc(b1-6)Glc", "how_it_was_run": "as §1"}, "GlcA(b1-3)Gal": {"target": "GlcA(b1-3)Gal", "how_it_was_run": "as §1"}, "GlcA(b1-6)Gal": {"target": "GlcA(b1-6)Gal", "how_it_was_run": "as §1"}, "[12]": {"target": "GlcNAc(a1-3)Gal(b1-4)GlcNAc", "how_it_was_run": "as §1"}, "[13]": {"target": "GlcNAc(a1-6)Gal(b1-4)GlcNAc", "how_it_was_run": "as §1"}, "[14]": {"target": "GlcNAc(b1-2)Gal(b1-3)GalNAc", "how_it_was_run": "as §1"}, "[15]": {"target": "GlcNAc(b1-2)Man(a1-3)[GlcNAc(b1-2)Man(a1-6)]Man(b1-4)GlcNAc(b1-4)GlcNAc", "how_it_was_run": "as §1"}, "GlcNAc(b1-3)Gal": {"target": "GlcNAc(b1-3)Gal", "how_it_was_run": "as §1"}, "[16]": {"target": "GlcNAc(b1-3)Gal(b1-3)GalNAc", "how_it_was_run": "as §1"}, "GlcNAc(b1-3)Gal(b1-4)Glc": {"target": "GlcNAc(b1-3)Gal(b1-4)Glc", "how_it_was_run": "as §1"}}, "note": "This is one part of the list."}
{"binder": "B1", "values": [{"measurement": "glycan array binding signal (z-score)", "setting": "[1]", "result": -0.304}, {"measurement": "glycan array binding signal (z-score)", "setting": "[2]", "result": -0.303}, {"measurement": "glycan array binding signal (z-score)", "setting": "[3]", "result": -0.301}, {"measurement": "glycan array binding signal (z-score)", "setting": "[4]", "result": -0.095}, {"measurement": "glycan array binding signal (z-score)", "setting": "[5]", "result": -0.19}, {"measurement": "glycan array binding signal (z-score)", "setting": "[6]", "result": -0.152}, {"measurement": "glycan array binding signal (z-score)", "setting": "[7]", "result": -0.24}, {"measurement": "glycan array binding signal (z-score)", "setting": "[8]", "result": -0.363}, {"measurement": "glycan array binding signal (z-score)", "setting": "[9]", "result": -0.25}, {"measurement": "glycan array binding signal (z-score)", "setting": "Gal3S(b1-3)GalNAc", "result": -0.08}, {"measurement": "glycan array binding signal (z-score)", "setting": "Gal3S(b1-3)GlcNAc", "result": -0.242}, {"measurement": "glycan array binding signal (z-score)", "setting": "[10]", "result": -0.214}, {"measurement": "glycan array binding signal (z-score)", "setting": "Gal3S(b1-4)Glc", "result": -0.299}, {"measurement": "glycan array binding signal (z-score)", "setting": "Gal3S(b1-4)Glc6S", "result": 0.639}, {"measurement": "glycan array binding signal (z-score)", "setting": "Gal3S(b1-4)GlcNAc", "result": -0.086}, {"measurement": "glycan array binding signal (z-score)", "setting": "Gal3S(b1-4)GlcNAc6S", "result": 0.732}, {"measurement": "glycan array binding signal (z-score)", "setting": "Gal3S6S(b1-4)GlcNAc", "result": 0.3}, {"measurement": "glycan array binding signal (z-score)", "setting": "Gal3S6S(b1-4)GlcNAc6S", "result": 6.21}, {"measurement": "glycan array binding signal (z-score)", "setting": "Gal4S(b1-4)GlcNAc", "result": -0.094}, {"measurement": "glycan array binding signal (z-score)", "setting": "Gal4S6S(b1-4)GlcNAc", "result": 0.422}, {"measurement": "glycan array binding signal (z-score)", "setting": "Gal6S(b1-4)Glc", "result": -0.177}, {"measurement": "glycan array binding signal (z-score)", "setting": "Gal6S(b1-4)Glc6S", "result": 0.133}, {"measurement": "glycan array binding signal (z-score)", "setting": "Gal6S(b1-4)GlcNAc", "result": -0.239}, {"measurement": "glycan array binding signal (z-score)", "setting": "GalNAc(a1-3)Gal", "result": -0.293}, {"measurement": "glycan array binding signal (z-score)", "setting": "GalNAc(a1-3)GalNAc", "result": -0.293}, {"measurement": "glycan array binding signal (z-score)", "setting": "[11]", "result": -0.16}, {"measurement": "glycan array binding signal (z-score)", "setting": "GalNAc(b1-3)GalNAc", "result": -0.124}, {"measurement": "glycan array binding signal (z-score)", "setting": "GalNAc(b1-4)GlcNAc", "result": -0.155}, {"measurement": "glycan array binding signal (z-score)", "setting": "Glc(a1-4)Glc", "result": -0.285}, {"measurement": "glycan array binding signal (z-score)", "setting": "Glc(a1-6)Glc(a1-6)Glc", "result": -0.527}, {"measurement": "glycan array binding signal (z-score)", "setting": "Glc(b1-4)Glc", "result": -0.151}, {"measurement": "glycan array binding signal (z-score)", "setting": "Glc(b1-6)Glc", "result": -0.063}, {"measurement": "glycan array binding signal (z-score)", "setting": "GlcA(b1-3)Gal", "result": -0.155}, {"measurement": "glycan array binding signal (z-score)", "setting": "GlcA(b1-6)Gal", "result": -0.153}, {"measurement": "glycan array binding signal (z-score)", "setting": "[12]", "result": -0.194}, {"measurement": "glycan array binding signal (z-score)", "setting": "[13]", "result": -0.328}, {"measurement": "glycan array binding signal (z-score)", "setting": "[14]", "result": 0.12}, {"measurement": "glycan array binding signal (z-score)", "setting": "[15]", "result": -0.084}, {"measurement": "glycan array binding signal (z-score)", "setting": "GlcNAc(b1-3)Gal", "result": -0.179}, {"measurement": "glycan array binding signal (z-score)", "setting": "[16]", "result": -0.16}, {"measurement": "glycan array binding signal (z-score)", "setting": "GlcNAc(b1-3)Gal(b1-4)Glc", "result": -0.07}]}
